In all, about 52,000 compounds went through this assay and about 1,700 (3.3%) were called active. Rule as the data show it: active = survival mostly below about 52% (no sharp cut-off); inactive = mostly above about 56%. This is one part of the list.

This experiment deals with Wild type. The experiment is described as follows: growth inhibition of S. aureus wild type versus tarO mutant, primary screen, teichoic acid synthesis inhibitors, RN4220, OD600 (AID 463173). The conditions noted are these: S. aureus RN4220 wild type/DeltatarO growth, OD600, 18 h, active compounds read low, screened at 18.75 µg/mL (by protocol).
In the case of `Cc1nc2ccccn2c(=O)c1NC(=O)c1ccc(C(F)(F)F)cc1`, the survival is active: -2%. `Cc1ccc(NC(=O)Cn2c(=O)n(CCCCC(=O)NCc3ccccc3Cl)c(=O)c3ccccc32)cc1C`: the survival was inactive: 74%. Then `CCOc1ccc(NC(=O)Cn2c(C)cc3ccccc3c2=O)cc1`, with inactive: 75%; and `CCOC(=O)c1ccccc1NC(=O)c1sc2ncn(Cc3cccc(F)c3)c(=O)c2c1C`, with inactive: 68%; and `O=C(O)c1ccc(-n2c(/C=C\c3ccc(O)cc3)nc3ccccc3c2=O)cc1`, with inactive: 81%. For the compound `Cc1ccc(C2=Nc3ccccc3N(CC(=O)NCc3ccc(F)cc3)C(=O)C2)cc1C`, the survival is inactive: 97%. For the compound `COc1ccc(/C=C(\C#N)c2nc(-c3cc4c(ccc5ccccc54)oc3=O)cs2)cc1O`, the survival was inactive: 79%. Consider `COc1ccc(C(=O)Nc2cccc(OCc3cc(=O)n4c5c(sc4n3)CCCC5)c2)cc1`, for which the survival was inactive: 80%.

As to `Cn1c(=O)c2c(nc3n(-c4ccc(O)cc4)c(-c4ccc(Br)cc4)cn23)n(C)c1=O`, the survival was inactive: 142%.

For the compound `CC1=C(C(=O)Nc2cccnc2)C(c2ccc(Cl)cc2)n2nc(-c3ccccc3)nc2N1` (stereo unspecified), the survival is inactive: 71%. Next, `COc1ccc(OC)c(S(=O)(=O)NCc2cccn2Cc2cccc(C)c2)c1`: inactive: 69%; `Nc1cc(N)nc(SCCN2CCOCC2)n1`: inactive: 115%. For `Cc1ccc(C)c(NC(=O)CSc2c3c(nc4ccc(Cl)cc24)CCCC3)c1`, the survival is inactive: 83%. Next, `COc1cn(CC(=O)Nc2cccc(C)c2C)c(CN2CCCCC2)cc1=O`: inactive: 99%. Consider `COc1cccc(C(=O)c2cn(CC(=O)NCc3ccccc3)c3nc(C)ccc3c2=O)c1`, for which the survival is inactive: 71%.

Turning to `COc1ccc(OCc2nc3c4c(-c5ccccc5)c(-c5ccccc5)oc4ncn3n2)cc1`, the survival was inactive: 71%.

With `COc1ccc(CNC(=O)CSc2nc3ccccc3nc2Cc2ccccc2OC)cc1`, the survival was inactive: 65%.

In the case of `COC(=O)c1sc(NC(=O)/C=C/c2ccc(OC)c(OC)c2)c(C(=O)OC)c1C`, the survival is inactive: 55%. Regarding `COc1ccccc1NC(=O)CSc1nc2ccccc2c2nc(-c3ccccc3)nn12`, the survival is inactive: 72%. As to `COc1ccccc1-c1cc(C(=O)Nc2ccccc2C(F)(F)F)no1`, the survival is inactive: 95%.

`CC(C)NC(=O)CCCN1C(=O)CCn2nc(-c3cccn3C)cc21`: the survival is inactive: 79%.

Turning to `COC(=O)c1cc2c(cc1NC(=O)c1cnn(-c3ccc(C)cc3)c1-n1cccc1)OCO2`, the survival was inactive: 88%.

In the case of `Cc1[nH]c2ccccc2c1C1N2CC3(C)CN1CC(C)(C2)C3=O` (stereo unspecified), the survival was inactive: 62%. On to `Cc1cccc(CNC(=O)CSCc2cnn(-c3ccccc3)c2-n2cccc2)c1`, for which the survival was inactive: 75%.

For the compound `N/N=C1\C(=N/O)CCc2nonc21`, the survival is inactive: 100%.

Turning to `Cc1cc(=O)[nH]c(SCC(=O)N2CCCCC2)n1`, the survival is inactive: 103%. On to `COc1cc(C(=O)N2CCN(C(=O)C(Cc3cc(C)ccc3C)NC(C)=O)CC2)cc(OC)c1OC` (stereo unspecified), for which the survival is inactive: 95%.

For the compound `CCOC(=O)c1ccc(NS(=O)(=O)c2cc(-c3onc(C)c3C)ccc2C)cc1`, the survival is inactive: 66%. Next, `Cc1nn(C)c2c1c(C(F)(F)F)cc(=O)n2C(C)C(=O)NCc1ccc(Cl)cc1` (stereo unspecified): inactive: 83%; `O=C(Nc1ccc(Br)cc1F)N1CCC(CN2CCCC2)CC1`: inactive: 99%. As to `CC1=C(C(=O)OCc2ccccc2)C(c2cccc(Cl)c2Cl)CC(=O)N1` (stereo unspecified), the survival is inactive: 106%.

`COc1cc(OC)c(C2Nc3c(C)cccc3-c3cc(C)nn32)cc1OC` (stereo unspecified): the survival was inactive: 142%. Regarding `COC(=O)c1ccc(NC(=O)CC2C(=O)N(c3ccc(Cl)cc3)C(=O)N2Cc2ccco2)cc1` (stereo unspecified), the survival is inactive: 32%. Take `CCN1C(=O)c2ccccc2S(=O)c2ccc(C(=O)N3CCN(c4cccc(C)c4)C(C)C3)cc21` (stereo unspecified): the survival is inactive: 149%.

Take `CC1=C(c2ccc(C)cc2)S(=O)(=O)NC1=NCc1cccc(F)c1`: the survival was inactive: 91%.

Take `COc1ccc(NC(=O)CN2CCCN(Cc3ccc(Cl)cc3)S2(=O)=O)cc1Cl`: the survival is inactive: 67%. For `O=C(CN1C(=O)CSC1=O)CN1C(=O)CSC1=O`, the survival was inactive: 101%. Next, `CCn1c(CSc2ncccn2)nnc1SCC(=O)N1CCc2ccccc21`: inactive: 102%; `O=C1CCC(C2CCC3(CC2)OCCO3)CC1`: inactive: 103%; `CCN1c2ccccc2-c2nc(SCC(=O)NCc3ccc(C)cc3)ncc2S1(=O)=O`: inactive: 79%. With `CCOC(=O)c1ccc(NC(=O)Cn2cc(C(=O)c3ccc(CC)cc3)c(=O)c3ccc(C)nc32)cc1`, the survival is inactive: 143%. Then `CN(c1ccc(C(=O)NCc2cccnc2)cc1)S(C)(=O)=O`, with inactive: 111%; and `O=S(=O)(c1cccc2nsnc12)N(CCOc1ccccc1)C1CCCCC1`, with inactive: 99%; and `CCC(=O)Nc1cccc(C)c1`, with inactive: 115%.

On to `COc1ccc(CNC(=O)c2cnc3sc(N4CCCCCC4)nn3c2=O)cc1`, for which the survival was inactive: 70%. Next, `CCOC(=O)c1cnc2ccccc2c1NCCc1ccc(OC)c(OC)c1`: inactive: 53%; `CC1(C)CC2(CCO1)NNC(=S)NN2`: inactive: 99%.

As for `COC(=O)C1=C(c2ccccc2)c2ccccc2S(=O)(=O)N1CC(=O)Nc1ccc(F)c(F)c1`, the survival is inactive: 63%. In the case of `Cc1ccc(CNC(=O)Cn2c(=O)cc(C(F)(F)F)c3c(C)nn(C)c32)cc1`, the survival is inactive: 74%. As for `Cc1sc2ncn(CC(=O)N3CCN(c4ccc(F)cc4)CC3)c(=O)c2c1S(=O)(=O)N1CCC(C)CC1`, the survival is inactive: 84%. On to `Cc1ccc(CNC(=O)C2CCN(S(=O)(=O)c3c(C)noc3/C=C/c3cccs3)CC2)cc1`, for which the survival is inactive: 102%. On to `CCCCOc1ccc(-c2nnc(-c3ccco3)n2-c2ccccc2)cc1`, for which the survival was inactive: 110%. `CCOc1ccc(-c2nc(Cn3c(=O)cc(-c4ccccc4)c4c(C)nn(C)c43)c(C)o2)cc1`: the survival was inactive: 121%. In the case of `O=C(O)CCC(=O)Nc1ccc(-c2ccccc2)cc1`, the survival was inactive: 100%.

For `Cc1cccc(OCc2nnc(SCC(=O)N(C(C)C)C(C)C)n2Cc2ccco2)c1C`, the survival is inactive: 113%. Next, `O=C(CCS(=O)(=O)c1cc2c(cc1Cl)NC(=O)CO2)NCc1ccccc1Cl`: inactive: 88%; `CSc1ncc(C(=O)NCc2cccc(F)c2)c(-c2ccccc2)n1`: inactive: 82%; `CC(C)Oc1ccc(CNC(=O)c2ccc(CN3CC(=O)N4CCCCC4C3=O)cc2)cc1` (stereo unspecified): inactive: 124%. For `Oc1c(C(c2ccc(Cl)cc2Cl)N2CCN(c3ccccc3)CC2)sc2nc(-c3ccco3)nn12` (stereo unspecified), the survival is inactive: 75%.

As to `O=C(NCc1cccc(Cl)c1)c1ccc(NC(=O)N2CC3CCCN3c3ccccc32)cc1` (stereo unspecified), the survival was inactive: 66%.

As for `O=C(Nc1ccc2nc(SCC(=O)N3CCc4ccccc43)sc2c1)c1ccc(F)cc1`, the survival is inactive: 80%. Next, `O=c1c2oc3ccccc3c2n(Cc2ccccc2Cl)c(=O)n1Cc1ccco1`: inactive: 84%. With `COc1ccc(CN(Cc2ccco2)c2cnc(S(C)(=O)=O)nc2C(=O)Nc2ccc(C)c(Cl)c2)cc1`, the survival is inactive: 82%.

For `CCCn1c(SCC(N)=O)nnc1C(C)C`, the survival is inactive: 101%. `CCCc1nc(SC)ncc1C(=O)N1CCN(c2ccc(Cl)cc2)CC1`: the survival was inactive: 63%. Turning to `Cc1ccc(NC(=O)c2cnn3c(C(F)F)cc(-c4ccccc4)nc23)cc1F`, the survival is inactive: 86%. Then `CCCn1c(SCc2nc(-c3ccc(OC)c(OC)c3)no2)nnc1-c1ccccc1`, with inactive: 88%; and `CC(C)Oc1ccc(C(=O)N2CCN(CCc3ccccn3)CC2)cc1`, with inactive: 86%; and `O=C(NCCc1ccccc1)C1CCC(CNS(=O)(=O)c2ccccc2)CC1` (stereo unspecified), with inactive: 81%. Take `CC1CCN(C(c2ccccc2)c2nnnn2Cc2ccc(F)cc2)CC1` (stereo unspecified): the survival is inactive: 118%. In the case of `CC1CCc2nn(CC(=O)Nc3ccccc3Cl)cc2C1` (stereo unspecified), the survival is inactive: 77%.

On to `COc1ccc(OC)c(CNC(=O)c2ccc(-c3nc(CSc4ccccc4)c(C)o3)cc2)c1`, for which the survival was inactive: 129%. Then `CCOc1ccc(NC(=O)NCCc2c(C)nn(C)c2C)cc1`, with inactive: 60%; and `CCSc1nnc2c3cc(Br)ccc3n(C)c2n1`, with inactive: 96%. As for `CN(Cc1ccccc1)S(=O)(=O)c1ccc(-c2cnc(C3CC3)o2)cc1`, the survival is inactive: 81%. For the compound `Cc1c(C2=CCN(S(=O)(=O)c3cccc(Cl)c3)CC2)c2ccccc2n1CC(=O)N1CCCC1`, the survival is inactive: 97%. In the case of `Cc1ccc(NC(=O)C(C)Sc2nc(=O)cc(N)n2-c2cccc(C)c2)cc1` (stereo unspecified), the survival was inactive: 77%. For the compound `COc1cccc(S(=O)(=O)N2CCN(Cc3ccc4c(c3)OCO4)CC2)c1`, the survival is inactive: 71%. As to `COc1ccc(NC(=O)C(=O)NCC(c2cccnc2)N2CCc3ccccc32)cc1OC` (stereo unspecified), the survival is inactive: 93%. Next, `CCc1ccc(-c2nc3c(c(SCc4ccccc4F)n2)Cc2c(CO)cnc(C)c2O3)cc1`: inactive: 83%; `Cc1cccc(N2CCN(C(=O)CN3CCSc4ccccc43)CC2C)c1` (stereo unspecified): inactive: 59%; `CC(NCc1ccc2c(c1)OCO2)C(=O)NC1CCCCC1` (stereo unspecified): inactive: 103%. Consider `Cc1ccc(C)c(NC(=O)CN2C(=O)COc3ccc(Cl)cc32)c1`, for which the survival was inactive: 77%. As for `O=C(Nc1c(C(=O)Nc2ccc(F)cc2)oc2ccccc12)c1ccccc1F`, the survival was inactive: 30%. Take `Cn1c(=O)nc2n(-c3ccc(Cl)c(Cl)c3)c3cc(Cl)ccc3cc-2c1=O`: the survival is inactive: 76%. Regarding `COc1ccccc1CNC(=O)C1CCCN(c2nnc(-n3c(C)ccc3C)s2)C1` (stereo unspecified), the survival is inactive: 84%. In the case of `CC1=C(C(=O)OCC2CCCCC2)C(c2ccccc2F)CC(=O)N1` (stereo unspecified), the survival is inactive: 87%. Take `O=S(=O)(Nc1ccncc1)c1ccccc1`: the survival is inactive: 114%. Then `Cc1nc2nc(SCC(=O)NCCc3ccccc3)nn2c(C)c1Cc1c(F)cccc1Cl`, with inactive: 65%.

Regarding `Cc1ccccc1CNS(=O)(=O)c1csc(C(N)=O)c1`, the survival was inactive: 128%. Consider `COc1ccc(C(=O)N(Cc2ccc(C(C)C)cc2)C2CCS(=O)(=O)C2)cc1` (stereo unspecified), for which the survival is inactive: 86%.

(Values after PubChem BioAssay AID463173 (ICCB-Longwood Screening Facility, Harvard Medical School, 2010).)
